Data: PubChem BioAssay AID2546 (National Center for Advancing Translational Sciences (NCATS), 2010)
Hit rate of the full screen: of about 310,000 compounds, about 11,000 (3.5%) were called active. The shares of active, inactive and inconclusive entries below differ from those in the screen. Calls come from the whole dose curve; as a rule, active = well fitted inhibition curve with a large enough effect; inconclusive = small, poorly fitted or top-dose-only effect, or effect the other way; inactive = flat fitted curve, though single readings scatter. Potencies of inconclusive entries are left out as doubtful fits.

assay: VP16 counterscreen qHTS for inhibitors of ROR gamma transcriptional activity; settings: Drosophila S2 Gal4-VP16 UAS-luciferase, luminescence, 20 h; series mostly up to 53.6 µM;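 note: Gal4-VP16 expression switched on by copper sulfate through the metallothionein promoter; nearly all actives have a fitted effect of over 50% in size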
Source text: NIH Molecular Libraries Probe Production Network [MLPCN]
NIH Chemical Genomics Center [NCGC]
Assay Provider: Dan Littman, New York University
The retinoic acid-related orphan receptor (ROR) gamma is a transcription factor that has a central role in the differentiation of Th17 cells, a subset of T helper cells that secrete the inflammatory cytokines IL-17, IL-17F, and IL-22. Th17 cells have been implicated in graft versus host disease, autoimmune disease and asthma. ROR gamma is induced in naive T helper cells in the presence of TGF-beta combined with IL-6, IL-21, or IL-23, and thereafter directs the expression of the Th17 lineage cytokines. To identify nonspecific inhibitors, a Drosophila Schneider cell line was stably transfected with two vectors: a gene expressing a fusion of the Gal4 DNA binding domain and VP16 transactivation domain under the control of the metallothionine promoter and a Photinus luciferase reporter regulated by the Gal4 binding site enhancer, UAS. […] Small molecule inhibitors that inhibit components common to the RORgt and VP16 assays, such as the Gal4 DNA binding domain or the UAS luciferase reporter, will be active in both assays and thus scored as nonspecific.
For screening, 600 cells in 4 uL/well were dispensed into white solid 1536-well plates (Grenier) using a solenoid-based dispenser. Following transfer of 23 nL compound or DMSO vehicle by a pin tool, the plates were incubated 1 hr at ambient temperature, and 1 uL/well copper sulfate (700 uM final concentration) was added. The plates were centrifuged 15 s at 1000 RPM and incubated 20 hr at ambient temperature. After addition of 1.5 uL Photinus luciferase detection reagent, the plates were incubated 10 min at ambient temperature and then read by a ViewLux (Perkin Elmer) to detect luminescence.
Potency is the fitted concentration of half-maximal effect; tags give direction and shape of the fitted curve.

Compound	Potency
CC(C)C/C=C1\CCc2c([nH]c3ccccc23)C1=O	inconclusive [activator, full curve, poor fit]
Cc1ccc(C[n+]2cccc(-c3ccccc3)c2)c(C)c1	inconclusive [inhibitor, partial curve]
O=C(c1cc(-c2ccc(Cl)c(Cl)c2)on1)N1CCCC1	inconclusive [activator, single point]
CN1CCN(c2ccc(NC(=O)c3ccco3)cc2Cl)CC1	inconclusive [inhibitor, partial curve, poor fit]
CCN1C(=NCc2ccc(OC)cc2)N[C@@H](c2ccccc2)C(C(=O)OC)=C1C	inactive
CCN(CC)S(=O)(=O)c1ccc(S(=O)(=O)N(Cc2ccccn2)Cc2ccco2)cc1	inconclusive [inhibitor, single point]
O=C(O)C1CC=CCC1C(=O)N1CC=C(c2ccccc2)CC1 (stereo not given)	inconclusive [activator, single point]
COc1cccc(C(=O)Nc2nc3c(s2)CN(C)CC3)c1	active: 12.6 µM
Cc1ccc2nc(Cl)c(/C=N/Nc3nc(C)cc(C)n3)c(=O)n2c1	inconclusive [inhibitor, single point]
Cc1ccc(/C=C/c2nc3ccccc3s2)s1	active: 10 µM
COc1ccsc1C(=O)Nc1ccc(F)cc1F	inconclusive [activator, single point]
COC(=O)C1=C(C)N(C)C(=S)N(C)C1c1cccc(Br)c1 (stereo not given)	inactive
CN(C)C=Nc1ncc2c3ccccc3n(CCN(C)C)c2c1C#N	inconclusive [inhibitor, single point]
O=C(c1ccc(OC2CCN(Cc3ccccc3O)CC2)cc1)N1CCCCC1	inactive
COCCCNC(=S)N/N=C/c1ccc(OC)cc1	inconclusive [inhibitor, single point]
O=C(Nc1nc(-c2ccccn2)cs1)C1CC1	inconclusive [inhibitor, single point]
CCc1ccccc1N(CC(=O)Nc1cccc(N(C)S(C)(=O)=O)c1)S(C)(=O)=O	inconclusive [inhibitor, single point]
COc1ccc(C(=O)Nc2ccc3ncccc3c2)cc1	inconclusive [inhibitor, partial curve]
COc1ccccc1NC(=O)N1CCN(c2ccc3nnc(-c4ccc(F)cc4)n3n2)CC1	inconclusive [inhibitor, single point]
Cn1c(SCc2nc3ccccc3[nH]2)nnc1-c1cccs1	inconclusive [inhibitor, full curve, poor fit]
